Values marked as one replicate rest on one cluster of the flow cell; about a third of the high ones do not repeat.
Test system: ATP
Assay: switch fluorescence ratio, 500 uM ATP over buffer (Cy3 cluster intensity, sum of 5 cycles each) (fold (ratio)); higher = stronger signal-on switching upon ATP binding; sequences stand for … in TCGTCGGCAGCGTCAGATGTGTATAAGAGACAGTTTTTTTTTTTTTTTTTTTTTTTTT…TC
Conditions: aptamer strand: ATP DNA aptamer (quencher-CACCTGGGGGAGTATTGCGGAGGAAGG + anchor), 100 nM annealed; ATP concentration: 500 uM; one replicate
Procedure, shortened: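 Cy3-labelled switching-strand clusters on a modified Illumina MiSeq flow-cell were annealed to 100 nM quencher-labelled ATP aptamer, imaged in selection buffer, then imaged after 15 min with 500 uM ATP at 22 °C. Five buffer/ATP cycles ran, with NaOH stripping and re-annealing between them. The fluorescence ratio is summed target-cycle over summed buffer-cycle Cy3 intensity per cluster, averaged per switch-domain sequence. Clusters outside 100-1000 RFU were excluded.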
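Also: ATP exposure 15 min at 22 °C before imaging.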

Sequence | switch fluorescence ratio
ACGTGTACAG | 1.04
TTAATCCCCG | 0.964
CTCCCGGTCG | 1.02
CAATTCAGTA | 0.992
ACGGCGGACC | 1.08
AATCACGCGG | 1.04
AAGTTTGAGA | 1.02
TGCAAACCGA | 1.72
GTAAATTTGG | 1
ACATATCTCT | 1.09
TACGGGATCC | 1.03
TGCAAGAATC | 1
TAATTGTTA | 0.992
GTAAGCTGTG | 1
GCTCACTTTA | 1.11
TTACTGCGAT | 1.1
AGGTACGGG | 1.02
GGCGGAGGAC | 0.996
AATTTACTCA | 1.07
CGTTGTTAAC | 0.995
CGTTAAGTAT | 0.982
TGATGAGCG | 0.982
CTCTTGGATG | 1.02
TTGTAGGG | 0.995
CCCGTGCTTT | 1.06
TTGACATAGT | 1.01

Sequence | switch fluorescence ratio
TGGTGGG | 1.03
GTCCCGAAAG | 1.16
GGAGCTGGCT | 1.02
TAATTGCAAG | 0.916
AGTATTAGAC | 0.959
AACGAACCGT | 1.09
TCTTCCCGGG | 1.13
ACGCCCGGCA | 1.08
GGGCTATTCG | 0.982
CCGGATATCG | 0.997
GAGAGTGCTT | 1.02
GCTTCCAGCA | 0.976
GACTCCGGTA | 3.98
AGGAAGATG | 0.995
TTCAGCAGTA | 1.06
ACGGCGATAG | 1.04
CGTAGTTAT | 1.1
ACCGCTGGGA | 0.994
GAGCCCCACG | 1.04
AATAATGTAC | 1.12
GAGGCAAGAA | 3.34
GGTTACATAG | 1.02
ACTTCTCGGG | 1.06
CTGAAAAAAA | 0.956
GATGGTGGGC | 0.992
TTGGATATT | 0.989

Sequence | switch fluorescence ratio
TAGGTCAAGC | 0.992
AACCGATTTG | 0.968
TCAACATTGT | 0.997
CGGTATAGCG | 1
ACTATAGTCG | 1.07
ATTCCCCACT | 1.07
TCAAAAATG | 0.998
TAGTTCTAGG | 0.984
CGTCTAAAGG | 1.01
GGTTGCAGGC | 1.01
AGTCACAACT | 1.02
CATAGTTTTG | 0.989
CGCGCGCTG | 1
AGCGCTTGAA | 0.992
ATCATGGAAC | 1
TTGGCTGATC | 0.961
ACCGGTAA | 1.02
GGGGGCACC | 1.01
AGCAGGATTC | 1.19
CATACTACAC | 1.34
ATACCAGCAC | 1.25
ATCGCGGTCT | 0.969
TACATTATAC | 1.21
CCGCGGCTG | 1.34
GCGACGTCGC | 0.999
GGCTGTTA | 0.966

Sequence | switch fluorescence ratio
CGGAATTTTG | 1.03
CGTCGTTGCA | 1.02
GTACCTCTGC | 1.47
AGCGACTTGG | 0.961
TGGGGCCGCC | 1
CACTCAAAGT | 1.02
TTAGTAGTCT | 0.918
ATGGCTTCCG | 1.13
ATAGTTCACC | 1
ATTGGGTACT | 0.95
AGATGAATAG | 1.04
AGGTATGTAC | 1.01
GGGACAG | 0.974
GAGATTTACT | 1
CTTGTTTTAG | 0.956
CTCAACTTAT | 1.02
TTTCGTATGC | 1.06
ACGATGT | 0.984
AGTGACAGGA | 0.998
TCATCAGAAG | 1.01
TAATTATCG | 0.992
CGTTCCTCAT | 1.25
AGGCCCAGTG | 1.85
GCTTATTATC | 0.983
AGGGCTGCAC | 0.991
TCGCTGTACT | 2.42

Sequence | switch fluorescence ratio
GCCCGATACT | 1.38
GGCCGGGCGG | 0.994
ACTATCGCTT | 1.2
GATGTCCGAC | 1.06
CTATAATCGG | 1.02
CGCCGGTTGA | 1.05
CTGACATGAC | 1.47
ATAAATACTA | 0.999
ACGGCAGGCT | 0.961
CACAGTGGA | 1.02
TCAAGCGCTG | 1.03
GTGTACGATC | 1.09
CATCATTTAC | 1.17
GGCAGGCCGT | 0.986
TAGCTGAAC | 1.28
GCGTATGTAG | 0.953
TGAATCTATT | 0.992
AACACGGGAT | 0.991
CGATACAAGT | 1.02
CTGCTAGATC | 1.01
TCCTACTCA | 1.32
TTTTTAGAGC | 0.991
GTTATAGCGC | 0.945
GAATCGTGAC | 1.04
CTGGTCAGC | 0.969
TTAAGAGCTC | 0.994

Sequence | switch fluorescence ratio
CAGACAATGG | 1.01
TGTATATGT | 0.993
AAATCCTGTG | 0.983
GAAAGAATCA | 0.987
GCCAACAGCA | 0.996
ACACGAACCG | 1.26
TGTGTATATG | 1.01
CTCTCAGCGC | 1.15
TCAGGCGGTT | 0.974
CTACAGCGAT | 3.56
GTATGC | 0.982
TAGGACTGCA | 1.06
TAAGCATGAT | 1.01
AGGAGCAGGC | 1.04
CAGAATTTT | 1.02
GTATGAATCA | 0.994
ATGCGTTATG | 0.99
GTTCGGCCTT | 1.06
AGCTAAGACA | 1.01
CTTGTGGAT | 0.994
GGCTGCGATT | 1.01
GTTTAGCAAC | 1.09
AGAAGCTCGC | 0.985
AACCTAGAGC | 0.999
TCAGTCGCGT | 0.983
ACTAGCCTCG | 0.982

Sequence | switch fluorescence ratio
TTCGCTTGGA | 0.987
GGGGTTTCTA | 1.02
CCTGTTACAT | 1.03
ATAACAGTTG | 1.01
ACTCAGACGT | 1.05
TTGTCCATTA | 0.998
GACGCCTGGG | 0.971
TAATCGTAGG | 0.982
CTTTATCTTA | 0.984
GCTTATTTGG | 0.993
GTTGCTACAG | 1.01
ATAAGGCGGA | 1.02
ACCGTAATC | 3.6
GCAATGGGGG | 1.32
CAACGAATTA | 1.05
TGTCGAAGCG | 0.922
CGACACAGAG | 1.07
GCTTGGTGTG | 1.01
CCCATATAGG | 1.02
TTAAAAATA | 1
CGTCATTAGT | 1.04
GGGTTTCGGT | 0.99
TGTCATTTGA | 0.983
CGTATTCAAT | 0.972
TTTAGCTTCT | 1.01
AGGGGGCACG | 0.991

Sequence | switch fluorescence ratio
TTTTTGCCCC | 0.988
CTGAGCGGAT | 1.04
GTATCGGGGT | 0.966
TTATTGACAG | 1.04
TGAAGCCGG | 1.05
TACGGCCGTC | 1.05
TAGCACTCTA | 1.08
GCTAGAGTA | 1.01
GCTCTCTGAC | 1.15
GATGCTTTTA | 1.01
TCGCGTCCTG | 0.974
TCGGGTTATT | 0.974
GGCAATCTGT | 1.06
TGGTGACGG | 1.02
ATTTACTGGG | 1
TCGGGATCAA | 0.998
GGCCCTAGTT | 1.03
GTCGGAAGGT | 0.962
TGCCACGTTT | 1.03

— the supplement of paper PMC10126150
